Legend:
purified human C1q [1] = target: T1, purified human C1q (human, UniProt P02745; P02746; P02747); test: C1q binding ELISA (Example 6): plate coated with 1 µg/mL antibody, purified C1q titrated; SD 6.1, n 3
T1 construct: Purified C1q, Quidel Cat # A400; multimer of A, B and C chains

purified human C1q [2] = target: T1, purified human C1q; test: C1q binding ELISA: plate coated with 1 µg/mL antibody, purified C1q titrated 0.010-30 µg/mL; SD 12.6, n 6

B1: IgG1-hDR5-01-G56T-E430G (antibody)
heavy: EVQLQQSGAEVVKPGASVKLSCKASGFNIKDTFIHWVKQAPGQGLEWIGRIDPANTNTKYDPKFQGKATITTDTSSNTAYMELSSLRSEDTAVYYCVRGLYTYYFDYWGQGTLVTVSSASTKGPSVFPLAPSSKSTSGGTAALGCLVKDYFPEPVTVSWNSGALTSGVHTFPAVLQSSGLYSLSSVVTVPSSSLGTQTYICNVNHKPSNTKVDKRV[human IgG1 Fc with E430G (EU numbers) left out]
light: EIVMTQSPATLSVSPGERATLSCRASQSISNNLHWYQQKPGQAPRLLIKFASQSITGIPARFSGSGSGTEFTLTISSLQSEDFAVYYCQQGNSWPYTFGQGTKLEIKRTVAAPSVFIFPPSDEQLKSGTASVVCLLNNFYPREAKVQWKVDNALQSGNSQESVTEQDSKDSTYSLSSTLTLSKADYEKHKVYACEVTHQGLSSPVTKSFNRGEC
notes: IgG1,kappa; also called IgG-hDR5-01-G56T-E430G
How did the EC50 (purified human C1q [1]) turn out when B1 was run?
The EC50 was 15.4 µg/mL.

What about the EC50 (purified human C1q [2]) of the same binder?
The EC50 was 20.7 µg/mL.

Reference: US20200181277A1 (Genmab, published 2020)
